Source: the GPR68 mutational scans of Howard et al. (2025)

B1: GPR68, Q15743 (parent)
chain: MGNITADNSSMSCTIDHTIHQTLAPVVYVTVLVVGFPANCLSLYFGYLQIKARNELGVYLCNLTVADLFYICSLPFWLQYVLQHDNWSHGDLSCQVCGILLYENIYISVGFLCCISVDRYLAVAHPFRFHQFRTLKAAVGVSVVIWAKELLTSIYFLMHEEVIEDENQHRVCFEHYPIQAWQRAINYYRFLVGFLFPICLLLASYQGILRAVRRSHGTQKSRKDQIQRLVLSTVVIFLACFLPYHVLLLVRSVWEASCDFAKGVFNAYHFSLLLTSFNCVADPVLYCFVSETTHRDLARLRGACLAFLTCSRTGRAREAYPLGAPEASGKSGAQGEEPELLTKLHPAFQTPNSPGSGGFPTGRLA

Tests used:
[1] = variants of: B1; experiment: cAMP reporter score (Enrich2 score, wild type = 0); higher = more signal; HEK293T, FACS bins
[2] = variants of: B1; experiment: surface expression score (Enrich2 score, wild type = 0); higher = more signal; HEK293T, FACS bins

Row | Variant | cAMP reporter score ([1]; pH 5.5) | cAMP reporter score ([1]; pH 6) | cAMP reporter score ([1]; pH 6, modulator: ogerin) | cAMP reporter score ([1]; pH 6.5, modulator: ogerin) | surface expression score [2]
1 | V96_C97insGS | -2.24 | -1.22 | -2.6 | -1.34 | -2
2 | V96_G98del | -1.04 | -0.83 | -0.325 | -0.043 | -2.21
3 | C97_G98del | -1.77 | -1.64 | -1.64 | -1.19 | -2.35
4 | C97_I99del | -1.54 | -1.7 | -1.73 | -0.794 | -2.27
5 | C97del | 0.135 | -0.713 | -0.722 | -0.441 | -2.63
6 | G98A | -1.24 | -1.11 | -1.52 | -1.06 | -1.2
7 | G98D | -1.28 | -0.314 | -2.61 | -0.541 | 0.917
8 | G98E | -2.37 | -0.579 | -1.55 | -2.24 | 0.274
9 | G98F | -1.39 | -0.33 | -2.14 | -1.05 | 0.998
10 | G98H | -1.7 | -0.82 | -0.973 | -1.08 | 0.845
11 | G98I | -1.02 | -0.737 | -2.29 | -1.61 | 0.413
12 | G98K | -2.3 | -0.685 | -1.42 | 0.138 | 2.12
13 | G98L | 0.098 | -0.542 |  | -1.55 | 0.643
14 | G98N | -1.52 | -0.088 | -1.44 | -1.23 | 
15 | G98P | -1.54 | -0.859 | -1.86 | -1.29 | -0.664
16 | G98R | -1.15 |  | -0.885 | 0.444 | 1.53

Row | Variant | cAMP reporter score ([1]; pH 5.5) | cAMP reporter score ([1]; pH 6) | cAMP reporter score ([1]; pH 6, modulator: ogerin) | cAMP reporter score ([1]; pH 6.5, modulator: ogerin) | surface expression score [2]
17 | G98S | -1.68 | -1.04 | -1.51 | -1.29 | 0.696
18 | G98T | -1.34 | -1.43 | -1.48 | -1.12 | 0.897
19 | G98V | -0.811 | -0.514 | -0.537 | -0.535 | 0.269
20 | G98W | -0.79 | -0.199 | -0.934 | -0.703 | -0.785
21 | G98Y | -0.75 | -0.731 | 0.011 | -1.04 | 1.77
22 | G98_L100del | -1.39 | -0.795 | -0.63 | -1.23 | -2.63
23 | G98del | -1.22 |  | -0.715 | -0.625 | -1.46
24 | I99_L100insGSG | -1.08 | -0.744 | -1.05 |  | -3.62
25 | I99del | -1.34 | -1.14 |  | -0.583 | -1.79
26 | L100A | 0.565 | 0.326 |  | -1.32 | -0.707
27 | L100C | -0.399 | -0.032 | -2.07 | -0.439 | 
28 | L100D | -0.745 |  |  | -1.52 | 
29 | L100E | -1.23 | -1.26 |  |  | 
30 | L100G | -0.854 | -2.33 | -1.68 | -1.04 | -2.13
31 | L100H | -1.75 | -1.28 | -2.6 | -0.574 | -2.14
32 | L100I | -0.138 | -0.521 | -0.606 | -0.319 | 0.416

Scores whose standard error is large were omitted. Two further conditions of the source, in which the scores hardly spread, are not listed. Names with del lack the residues named; names with ins carry added residues between the positions named. For some assays here: How much ogerin was present is not stated here.
